# Test results reported in article PMC6919601, “Identification of Plasmodium dipeptidyl aminopeptidase allosteric inhibitors by high throughput screening” (PLoS ONE, 2019).
# Values joined by “and” are separate entries in the source; they are usually repeats but may differ in a detail not shown here. Identical values can stand only once. Hit rate of the full screen: of about 110,000 compounds, about 230 (0.21%) showed an effect of 50% or more. This is one part of the list.
# Target: DPAP1 (Plasmodium falciparum, UniProt Q8IIJ9)
# Test: primary screen, percent inhibition; read by cleavage of a fluorogenic dipeptide substrate; higher = more effect of the substance
# Design: species or system P. falciparum D10 trophozoite lysates; single well
# 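Also: 30 min substrate incubation versus DMSO and 10 µM JCP410 controls.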
# Sequence of DPAP1 (Q8IIJ9 whole entry, looked up): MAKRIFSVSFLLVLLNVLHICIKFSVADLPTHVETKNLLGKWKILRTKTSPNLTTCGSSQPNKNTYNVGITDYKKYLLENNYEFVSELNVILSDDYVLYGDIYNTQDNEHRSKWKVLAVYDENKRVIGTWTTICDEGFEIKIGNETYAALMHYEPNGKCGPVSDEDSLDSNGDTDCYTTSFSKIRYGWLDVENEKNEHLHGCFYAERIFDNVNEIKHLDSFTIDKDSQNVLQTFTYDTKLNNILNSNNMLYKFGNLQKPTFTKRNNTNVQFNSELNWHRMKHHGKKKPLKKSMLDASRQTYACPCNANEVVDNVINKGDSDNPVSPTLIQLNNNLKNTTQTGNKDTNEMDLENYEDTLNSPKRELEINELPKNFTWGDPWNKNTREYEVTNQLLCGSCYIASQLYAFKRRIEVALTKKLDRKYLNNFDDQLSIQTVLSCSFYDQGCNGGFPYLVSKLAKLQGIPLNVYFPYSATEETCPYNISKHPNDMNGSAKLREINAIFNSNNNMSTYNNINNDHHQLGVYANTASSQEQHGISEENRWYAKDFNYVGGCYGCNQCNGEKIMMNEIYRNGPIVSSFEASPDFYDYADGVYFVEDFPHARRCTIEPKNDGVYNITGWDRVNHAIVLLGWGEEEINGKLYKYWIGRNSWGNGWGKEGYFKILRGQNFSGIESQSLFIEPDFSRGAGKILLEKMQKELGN
row,SMILES,% Inhibition @ 10 uM
1,CC[C@H](C)[C@H](NC(=O)c1cccc(CN)c1)C(=O)N[C@@H](C)C(=O)CO,2.22%
2,Cc1cc(O)nc(SCC(=O)NCCc2ccc(Cl)cc2)n1,0.9%
3,Cc1ccc(C2N3CC4(C)CN2CC(C)(C3)C4)cc1 (centres unmarked),-0.289%
4,Cc1ccc2nc(N(CCCN(C)C)C(=O)c3cccs3)sc2c1,2.01%
5,Cc1cc(C#N)c(SCC(N)=O)nc1-c1ccc(F)cc1,1.57%
6,Cc1ccc(C(=O)Nc2ccccc2C)cc1,3%
7,CC(NC(=O)c1ccccc1C(=O)O)c1ccccc1 (centres unmarked),0.878%
8,CCCN(CCC)CCNC(=O)CS(=O)(=O)Cc1nc(-c2cccc(OC)c2)oc1C,-5.58%
9,Cc1cc2c(cc3c(=O)n(CC(=O)NCCN4CCOCC4)ncn32)s1,0.0198%
10,CCOc1ccc2nc(NC(=O)c3ccc(C)cc3)sc2c1,-2.19%
11,CNS(=O)(=O)c1cn(CC(=O)NCCC(C)C)cc1S(=O)(=O)NC,-11.4%
12,Cc1nc(-n2cccc2)sc1C(=O)NCCc1ccccc1,5.73%
13,O=S(=O)(c1ccc(O)cc1)c1ccc(O)c(C23CC4CC(CC(C4)C2)C3)c1,-0.0369%
14,O=C(NCc1ccc(F)cc1)C1CCN(c2cnccn2)CC1,-2.71%
15,CC(CN(C)Cc1ccccc1)OC(=O)c1ccc2c(c1)OCCO2 (centres unmarked),-5.51%
16,Cc1nn2c3ccccc3nc2n1C,5.45%
17,CC1(C)C=C(N2CCNCC2)CC(C)(C)N1,0.162%
18,Cc1ccc2c(nc3s/c(=C/c4ccccc4F)c(=O)n32)c1C,8.12%
19,CCC(=O)N1CCN(c2cc(N3CCC(C)CC3)c(F)cc2[N+](=O)[O-])CC1,1%
20,O=C1CN(CCc2ccccc2)CC(=O)N1CCc1ccccc1,-6.83%
21,C#CCN1C(=O)S/C(=C/c2cc(C)n(-c3ccccn3)c2C)C1=O,-3.78%
22,C/C(=N/N=C(N)N)c1cccc(-n2cnnn2)c1,1.46%
23,C=CCn1c(SCC(=O)Nc2ccc(OC)cc2)nc2sc3c(c2c1=O)CCC3,5.97%
24,COc1cc(OC)c(OC)cc1/C=C1\SC(N2CCCC2)=NC1=O,3.59%
25,COc1ccc(NOc2ccccc2)cc1,-6.18%
26,C=CCOc1cccc(C2c3c(oc4ccccc4c3=O)C(=O)N2c2nc(C)c(C(C)=O)s2)c1 (centres unmarked),2.16%

row,SMILES,% Inhibition @ 10 uM
1,CC1CN(C2=NC(=O)/C(=C\c3ccc(Br)cc3)S2)CC(C)O1 (centres unmarked),7.39%
2,COc1ccc(NC2=CC(c3cccc(OC)c3)N(c3ccc(OC)cc3)C2=O)cc1 (centres unmarked),1.96%
3,C=CCN1C(=O)NC(=O)/C(=C/c2ccc(OCC(=O)O)c(OCC)c2)C1=O,1.58%
4,Cc1cc(C)c2c(CC(=O)N(Cc3ccc(Cl)cc3)C3CCS(=O)(=O)C3)coc2c1 (centres unmarked),3.99%
5,Fc1ccc(-c2noc3ncnc(N4CC=C(c5ccccc5)CC4)c23)cc1,-4.78%
6,O=C(CN(C1CCCCC1)S(=O)(=O)c1ccc(Cl)cc1)NC1CCCC1,-0.553%
7,CCCOc1ccc(C(=O)Nc2cccnc2)cc1,1.25%
8,O=C(Cn1c(SCc2cccc(F)c2)nc2ccncc21)NCc1ccco1,1.03%
9,CCOc1ccc2nc(NC3=NCN(Cc4ccccc4)CN3)nc(C)c2c1,5.3%
10,Cc1cccc(NC(=O)C23CCC(C)(C(O)C2)C3(C)C)n1 (centres unmarked),2.08%
11,Cc1nc2ccc(S(=O)(=O)NC(C(=O)NCc3ccc4c(c3)OCO4)C(C)C)cc2s1 (centres unmarked),-3.45%
12,CC(C)c1ccc(C2CC(=O)NC(SCC(N)=O)=C2C#N)cc1 (centres unmarked),0.851%
13,COc1ccc(C2c3c(oc4ccccc4c3=O)C(=O)N2c2nccs2)cc1OC (centres unmarked),-7.17%
14,CS(=O)(=O)N(CC(=O)N1CCOCC1)c1ccc(Cl)c(C(F)(F)F)c1,4.49%
15,CC1CCN(c2c(NCc3ccc(C(=O)N4CC(C)CC(C)C4)cc3)c(=O)c2=O)CC1 (centres unmarked),2.76%
16,CCOc1ccc(S(=O)(=O)Nc2ccc(-c3cn4ccsc4n3)cc2)cc1,6.24%
17,COc1ccc(CN2CCN(Cc3ccncc3)CC2)c(OC)c1,3.08%
18,CC(=O)c1c(O)cc(C)o/c1=N\c1ccc(O)cc1,-4.49%
19,CCc1nnc(NC(=O)CSc2nc3c(c(=O)n2CC)SCC3)s1,-4.16%
20,CNc1ccc(C(=O)N[C@@H](CC(C)C)C(=O)NCC#N)cc1[N+](=O)[O-],-0.207%
21,CCOc1ccc(CNc2nc3nc(C)cc(O)n3n2)cc1,-4.19%
22,C=C(C)COc1ccc2c3c(c(=O)oc2c1C)CCCC3,-2.13%
23,CCOc1ccc(C2CC3=NC(C)=C(C(=O)OCCOC)C(c4cccs4)C3=C(O)C2)cc1OC (centres unmarked),-2.98%
24,CCCOc1cccc(C2c3c(oc4ccc(F)cc4c3=O)C(=O)N2c2cc(C)ccn2)c1 (centres unmarked),-5.38%
25,CCC(C)NC(=O)c1cnn2c(C(F)(F)F)cc(-c3ccc4c(c3)OCO4)nc12 (centres unmarked),-4.72%
26,O=C(NCc1ccccc1)c1ccc(Br)o1,-2.03%

row,SMILES,% Inhibition @ 10 uM
1,COc1ccc(Cn2c(C(=O)O)c(CNCc3ccccc3OC)c3ccc(C)cc32)cc1,-6.62%
2,COC(=O)c1ccccc1NC(=O)c1ccc(Cl)cc1Cl,0.827%
3,CC(C)(C)c1ccc(C(=O)N2CCN(C/C=C/c3ccccc3)CC2)cc1,-6.7%
4,N#C/C(=C\c1c(Oc2ccccc2)nc2ccccn2c1=O)c1nc2ccccc2s1,-31.5%
5,Cc1cccc(C)c1NC(=O)c1cccc(Br)c1,-5.65%
6,COCCOC(=O)c1c(N)sc2c1CCCC2,0.968%
7,CCCSC1=C(C#N)C(c2cc(OC)ccc2OC)CC(=O)N1 (centres unmarked),2.36%
8,CCOc1ccccc1C(=O)Nc1nc2ccc(S(N)(=O)=O)cc2s1,-7.35%
9,Cc1cccnc1NS(=O)(=O)c1cc(Cl)ccc1Cl,-1.56%
10,O=C(Cn1cnc2c(nnn2Cc2ccccc2F)c1=O)c1ccc(Cl)cc1,-3.94%
11,CN(c1ccc2cccc(O)c2n1)c1ccc2cccc(O)c2n1,4.88%
12,O=C(Nc1ccc(Br)cn1)c1cc(Br)ccc1Cl,-0.769%
13,Cc1occc1-c1nnc(SCC(=O)c2ccc3c(c2)OCO3)n1-c1ccccc1,3.68%
14,CCc1c(O)n(C(C)CC)c(=S)[nH]c1=O (centres unmarked),3.85%
15,O=C(OCc1ccccc1)c1ccc(Oc2nnnn2-c2ccccc2)cc1,0.776%
16,COC(=O)c1cc(CSc2nnc(-c3ccccc3)n2-c2ccccc2)oc1C,-6.65%
17,O=C(c1ccc(CNc2c(NC3CCCCC3)c(=O)c2=O)cc1)N1CCCC1,-4.26%
18,COc1ccc(C(C)C)cc1S(=O)(=O)Nc1ccccn1,-3.01%
19,CC(C)(C)c1ccc(OCCCCN2CCOCC2)cc1,-2.12%
20,Cc1cc(C)c2c(n1)SCC(=O)N2Cc1ccc(C(=O)NC2CCCCCC2)cc1,1.14%
21,O=S1(=O)N=C(NCCOCc2ccc(Cl)cc2)c2ccccc21,-1.82%
22,COc1cccc(CNC(=O)Cn2nc(C)n3cccc3c2=O)c1OC,-0.385%
23,COCCCNc1nc2c(c(=O)n(C)c(=O)n2C)n1Cc1ccccc1Br,6%
24,CC1CCCN(C(=O)/C(=C/c2cccc(F)c2)NC(=O)c2ccccc2Br)C1 (centres unmarked),-2.53%
25,N#Cc1ccc(-c2cccnc2)nc1S,35.2%
26,COc1ccc(N(C(C)C(=O)Nc2cccc(Cl)c2)S(C)(=O)=O)cc1 (centres unmarked),3.17%

row,SMILES,% Inhibition @ 10 uM
1,COc1ccc(OCC(=O)Nc2nc3ccccc3s2)cc1,-1.57%
2,CC(C)(CNC(=O)c1ccc(F)cc1)CNC(=O)c1ccc(F)cc1,-7.08%
3,COc1ccccc1-c1cc(C(=O)N2C(C)CCCC2C)no1 (centres unmarked),0.0654%
4,COc1ccccc1CNCc1c(C(=O)O)c(C)n(Cc2ccccc2C)c1C,4.53%
5,COc1cccc(C(=O)Nc2ccccc2O)c1OC,2.64%
6,CC1CCCCC1NC(=O)C1C2CCC(C2)C1C(=O)O (centres unmarked),-1.11%
7,COCCNC(=O)CSc1nc2ccccc2c2nc(CCn3nc(C)cc3C)nn12,0.569%
8,Cc1ccc2c(cnn2C(=O)CCCC(=O)NCCCN2CCN(C)CC2)c1,0.623%
9,CC(C)NCCc1c[nH]c2ccccc12,1.13%
10,COc1ccc(-c2nc(N)n(C(=O)c3ccc(C)cc3)n2)cc1,-4.77%
11,Cc1ccccc1NC(=O)c1cccc(NC(=O)CCC(=O)O)c1,3.86%
12,O=S(=O)(c1ccc(Br)cc1)N1CCN(C/C=C/c2ccccc2)CC1,3.9% and 1.52%
13,COc1ccc(C2CC(c3ccc(OC)cc3OC)n3ncnc3N2)cc1 (centres unmarked),0.0842%
14,CC1CC2=C(CC1/C=N/NC(N)=S)C(C)(C)CCC2 (centres unmarked),0.275%
15,C=CCOc1c(Br)cc(C2C(C#N)=C(N)Oc3cc4c(cc32)OCO4)cc1OC (centres unmarked),0.851%
16,O=C(c1nn2c(C(F)(F)F)cc(-c3cccs3)nc2c1Cl)N1CCCCC1,1.4%
17,Cc1sc(-n2cccc2)c(C(=O)NCc2ccc(Cl)cc2)c1C,4.84%
18,Cc1nc2ccc(S(=O)(=O)N(CC(=O)NCc3ccccn3)Cc3ccccc3)cc2s1,-1.56%
19,Nc1c(C(=O)Nc2ccc(Cl)cc2)sc2nc3c(cc12)CCCC3,0.931%
20,O=[N+]([O-])c1ccc(-c2nc(-c3ccc(Cl)cc3)no2)cc1,-0.591%
21,CC(C)(C)c1ccc(CN2C(=O)COc3cccnc32)cc1,7.74%
22,O=C(COc1ccc(Cl)cc1)Nc1ccccc1NC(=O)COc1ccc(Cl)cc1,-1.38%
23,O=C(CSc1nc2c(c(C(F)(F)F)n1)CCc1ccccc1-2)Nc1cccnc1,-1.72%
